Reference: the supplement of paper PMC10986608
Some of the results follow. Single values are uncertain, as repeats are few or missing.

These compounds were tested on Candida albicans DPL-15 (assay: growth (OD600) after compound treatment (apparently relative to screen median) (relative growth (fraction; screen median 1.02)); DPL-15 is a caspofungin-resistant clinical isolate; higher = more fungal growth (less antifungal activity)). Details: 25 µM; RPMI 1640; 48 h; 30 °C.

SMILES	growth
CCOc1c(F)ccc(C2NC(=O)N3CCC=CC3=C2C(C)=O)c1F (stereo unspecified)	0.96
CCc1ccc(CCOS(=O)(=O)NC(C)(C)C)cc1	1.03
CO[C@@H]1[C@H](O)CC[C@]2(O)CN(CC3CCCCC3)[C@](C)([C@H](O)CC=C(C)C)[C@@H]12	1.08
CC(C)Cc1n[nH]c2c1C(c1ccc(F)cc1)N(c1ccc(N(C)C)cc1)C2=O (stereo unspecified)	1.11
COc1ccc(N2C(=O)c3[nH]nc(CC(C)C)c3C2c2ccsc2)cc1 (stereo unspecified)	1.13
COc1ccc(Cn2ncc(-c3ccccc3)c2N)cc1	0.775
COCOc1cccc2c(OC)c(C3=C(C(=O)O)[C@@H](OC(C)=O)[C@@]4(C)O[C@H]4[C@H]3OC(C)=O)cc(OC)c12	1.03
CCOC(=O)CN1C(=O)N[C@@H](CCc2ccccc2)C(C(C)=O)=C1C	0.917
COc1cc(CCC(=O)/C=C(\O)CCc2ccc(O)c(OC)c2)ccc1O	0.973
C[C@@H]1/C=C/CC(=O)OCCCC(=O)N2CCC[C@H]2C(=O)N[C@@H]1c1ccc(Br)cc1	0.991
COc1cc(OC)c2c(=O)c3c(CC=C(C)C)ccc(OCC(=O)O)c3oc2c1	1.1
CC1(C)O[C@@H]2[C@@H](O1)C(c1ccccc1)(c1ccccc1)OP(=O)(O)OC2(c1ccccc1)c1ccccc1	1.04
CCC1=CCN(S(=O)(=O)c2ccc(C)cc2)C/C1=C(/c1ccccc1)c1cccc(N(C)C)c1	0.887
CC(=O)C1=C(C)N(Cc2ccccc2)C(=S)NC1c1ccccc1F (stereo unspecified)	0.946
CCO[C@]1(c2ccc3c(c2)OCO3)Oc2ccc(Cl)cc2C(=O)[C@]12OCC=C2C	0.958
COC(=O)C1=C(C)N(C)C(=S)NC1c1cccc(OC)c1 (stereo unspecified)	1.19
COC(=O)[C@@]12Oc3cccc(O)c3C(OC)=C1C(=O)C[C@H](C)[C@H]2O	1.04
CNc1ccccc1C(=O)OC/C=C/c1ccccc1	1.11
COC(=O)C1=C(C)N(CC#Cc2ccccc2)C(=O)NC1c1ccccc1 (stereo unspecified)	1.17

SMILES	growth
CCN1C(NCCCOC(C)C)=N[C@@H](c2cccc(F)c2)C(C(=O)OC)=C1C	1.13
O=C(Cc1ccc([N+](=O)[O-])cc1)N1Cc2ccccc2C1	1.15
N#Cc1ccc(S(=O)(=O)N2CCCc3nc(-c4ccccc4)ccc32)cc1	0.91
COC(=O)C1=C(C)NC(=O)NC1c1cc(OC)c(OC)c(OC)c1 (stereo unspecified)	1.17
c1ccc(CCCc2cc(CCCc3ccccc3)nc(CCCc3ccccc3)c2)cc1	1.2
COC(=O)C1=C(C)N(CCCOC(C)C)C(NCc2ccccc2)=NC1c1ccccc1 (stereo unspecified)	1.28
COC(=O)Cc1nnn2c1[C@H](C)[C@@H](OC)c1ccc(C(F)(F)F)cc1-2	1.07
CON(C)C(=O)c1nnc2c3ccccc3n(S(=O)(=O)c3ccc(C)cc3)c2n1	0.944
CC1=C[C@H](COc2ccc(Br)cc2)O[C@]2(C1)C(=O)Nc1c(F)cccc12	0.809
COC(=O)C1=C(C(=O)OC)[C@@H]2N(C)c3ccccc3[C@@]23C[C@@H](C(=O)OC)N(C(=O)CC(C)C)C3=N1	0.936
CCc1cc(Nc2cc(O)cc(O)c2C(=O)N2Cc3cn[nH]c3C2)n(Cc2ccc(OC)cc2)n1	1.46
C=CCN1C(=O)C2=C(C(c3ccccc3)=NCC(C)(C)N2)C1c1ccccc1 (stereo unspecified)	1.04
C#CCN(Cc1ccc(C(=O)c2ccccc2)cc1)CC1CCCN(CCc2ccccc2C)C1 (stereo unspecified)	0.926
CC(=O)OC[C@H]1O[C@H](C#Cc2ccsc2)C=C[C@H]1OC(C)=O	1.01
COc1ccc(CO/N=C2\CCCC/C=C/CCOC(=O)c3c(O)cc(O)c(Cl)c3C2)cc1	1.13
CC(C)Cc1n[nH]c2c1C(c1ccc(F)cc1)N(c1ccccc1N(C)C)C2=O (stereo unspecified)	0.965
CCCCCCCc1cccc(Cl)n1	1.11
COCCN1C(NCC2CCCCC2)=NC(c2ccccc2)C(C(=O)OC)=C1C (stereo unspecified)	1.24
CC1(C)CC(=O)C2=C(C1)O[C@@]1(CCCCN3C(=O)c4ccccc4C3=O)Cc3ccccc3C2O1	0.876

SMILES	growth
CCCCCNS(=O)(=O)NC(C)(C)C	1.04
CN(Cc1cccnc1)CC1CCCN(CCc2ccccc2)C1 (stereo unspecified)	0.878
CC(C)Cc1n[nH]c2c1C(c1ccc(Br)cc1)NC2=O (stereo unspecified)	0.843
CC#CCN1C(=O)N(C(C)=O)C(c2ccccc2)C(C#N)=C1C (stereo unspecified)	0.998
CC(C)c1c2c(nn1-c1ccc(OC(F)(F)F)cc1)C(=O)NC2c1ccc2c(c1)OCO2 (stereo unspecified)	1.04
C[C@@H](CO)[C@@H]1CC[C@]2(CO)CC[C@]3(C)[C@H](CC[C@@H]4[C@@]5(C)CC[C@H](O)C(C)(C)[C@@H]5CC[C@]43C)[C@@H]12	1
CCOc1ccncc1I	1.27
Clc1cc(Cl)c2c3c([nH]c2c1)CCCC3	0.877
CC(C)c1nn(-c2ccc(F)cc2)c2c1C(c1cccc(C(F)(F)F)c1)NC2=O (stereo unspecified)	1.04
C#CCC(C)(C)CNC(=O)CC1(CNC(=O)c2cccc(C=O)c2)CCCCC1	1.02
COC(=O)/C(=C\c1ccccc1)C(=O)c1c(-c2ccc(OC)cc2)oc2cc(OC)cc(OC)c12	1.01
CCCc1cc2c(OC)ccc(O)c2c(=O)n1C	0.912
COC(=O)[C@H]1[C@@H](O)[C@@]2(O)c3c(OC)cc(OCc4ccccc4)cc3O[C@@]2(c2ccc(OC)cc2)[C@@H]1c1ccccc1	0.955
C=CCN1C(=O)[C@]2(OCCC=C[C@H]2C)c2c(Br)cccc21	1
CCOC(=S)SN(C(C)(C)C)S(=O)(=O)OCCCCCC(=O)OC	0.861
COC(=O)C1=C(C)N(CC(C)C)C(=S)NC1c1cccc(OC)c1 (stereo unspecified)	0.939
Cc1ccc(C2NC(=O)c3c2c(C)nn3-c2cc(C)cc(C)c2)cc1 (stereo unspecified)	1.03
COc1cc([C@@H]2[C@@H](C(=O)NCC3CC3)[C@H](C(=O)NCC3CC3)[C@H]2c2cc(OC)c(OC)c(OC)c2)cc(OC)c1OC	0.911
